Laboratory results published in US20110160594A1 (priority 2008, published 2011).

Legend:
Megoura viciae = assay: FT-IR spectra of treated vetch aphids, hierarchical clustering (Ward's algorithm) for mode of action; conditions: aphids on sprayed broad bean leaf disks, 0.3 ppm to 2500 ppm, 24-48 hours; with only a few exceptions
Procedure: Each well of a 12-well microtiterplate (supplier: TPP, wells: φ 22.2 mm) was filled with 1.4 ml of 0.8% Agar-Agar containing 2.5 ppm of the fungicide Opus to avoid fungal infections of the Agar-Agar.
After cooling a 20 mm broad bean (viciae faba) leaf disk was placed on the agar (bottom side up).
Ultrasonic-spraying with concentrations between 0.3 ppm and 2500 ppm of the corresponding substances was used to treat the leaf discs. The standard volume application rate was 20 μl with different concentrations of substances dissolved in a 1:1 acetone/water mixture.
For the negative controls leaf discs were treated with a 1:1 acetone/water mixture.
The sprayed microtiterplates were either stored under a fume hood for a quick dry (app. 2-4 hours) or overnight in a climatized test chamber at 23±1° C., 50±5% RH and 3500±500 lux of fluorescent bulb light (app. 12 hours).
After the drying of the leaf disks approx. 30 aphids (Megoura viciae) were placed on each leaf disk.
The top side of the microtiterplates was covered by cellulose and the associated lids. In order to prevent the wells from too much moisture each lid had twelve 4 mm-holes drilled centric atop the wells.
The treated microtiterplates were incubated for 24-48 hours in a climatized test chamber at 23±1° C., 50±5% RH and 3500±500 lux of fluorescent bulb light.
Insects were collected using a home-made teflon-block with 12 millcutted funnels. On the bottom of each funnel a collection mictrotube was mounted by means of a small piece of silicon tube. The whole block (=aphid collection device, ACD) was then attached to the microplate (see FIG. 2). The ensemble was flipped and aphids were transferred into the collection tubes. The tubes were closed with perforated caps, placed in a holder fabricated from brass (FIG. 3), cooled down in liquid nitrogen and freeze-dried for one day (Freeze Dryer Christ ALPHA 2-4 approx. 0.024 mbar). A steel ball was added to each tube. After closing the tubes (this time using an intact cap) the aphids were ground for 2 min with 25 Hz in a bead mill (TissueLyser from Qiagen) processing up to 96 tubes in parallel. The resulting powder was resuspended in the microtubes after the addition of 300 μl Baker water.
10 μl from the suspension above were transferred to a measuring position of a silicon 96-“well”plate (instead of the whole suspension it was also possible to use only the supernatant as sample for the IR measurements). By means of the pipette tip the samples were distributed within the whole area of the corresponding imprinted ring. Each sample was such applied to seven different positions, 12-13 samples could be processed on one single plate (see FIG. 5). The silicon plate was dried at 60° C. for 60 minutes, equilibrated to room temperature for 5 minutes and immediately subjected to measurement.
The infrared spectra were recorded in transmission on a Bruker TENSOR 27 FT-IR spectrometer with an attached high throughput screening extension HTS-XT. The spectrometer was controlled by the OPUS software package from BrukerOptics. The following parameters were used to record the FT-IR spectra: spectroscopic region: 4000-400 cm^−1, resolution 8 cm^−1, 16 scans per well, aperture 6 mm, mirror speed 10 kHz.
With the IR spectra a simple hierarchical clustering using Ward's algorithm was performed. […] The treated samples were again split up mainly into three groups.

Lemna paucicostata = assay: Lemna test: FT-IR spectra of treated whole plants, hierarchical clustering (Ward's algorithm) for mode of action; conditions: 10^-5 M and 10^-6 M, 48 hours of treatment
Procedure: For the Lemna test, stock cultures of Lemna paucicostata (L.) Hegelm. (collection Prof. R. Kandeler, University of Vienna, Austria) were propagated mixotrophically in an inorganic medium containing sucrose (K. Grossmann, Pest Management Science 61: 423-431, 2005). The bioassay was conducted under aseptic conditions in plastic Petri dishes (5 cm in diameter, six replicates) which contained 15 ml medium without sucrose. The test compounds were added to the dishes in acetone solution at concentrations of 10^−5M and 10^−6M, and the organic solvent allowed to volatize before loading them with ca. 120 fronds each.
The following compounds were applied: Topramezone (inhibitor of carotenoid synthesis), picolinafen (inhibitor of carotenoid synthesis), diuron (inhibitor of photosystem II), and chlorsulfuron (inhibitor of acetolactate synthase). Controls received corresponding amounts of acetone alone.
The culture dishes were then closed with plastic lids and incubated under continuous light (Philips T L white neon tubes, 40 μmol m^−2 s^−1 photon irradiance, 400 to 750 nm) in a growth chamber at 25° C. After 48 hours of treatment with cornpounds, plants from three replicate dishes were sampled (200 mg total fresh weight) in microtubes. The microtubes were placed in a holder fabricated from brass (compare FIG. 3) and freeze-dried. After the additions of one steel ball to each tube the lemna were ground in a bead mill processing 96 tubes in parallel. The resulting powder was resuspended in water and transferred to a 96-“well” silicon plate. After drying of the plate the FT-IR spectra were recorded.

SMILES	group of the dendrogram of IR spectra (FIG. 6) the treated samples fall into (Megoura viciae)	assignment of spectral changes in the dendrogram of IR spectra (FIG. 7) (Lemna paucicostata)
N#C/N=C1\SCCN1Cc1ccc(Cl)nc1 [thiacloprid]	group a), comprising the compounds acting on the nicotinic acetylcholine receptor	
N#Cc1nn(-c2c(Cl)cc(C(F)(F)F)cc2Cl)c(N)c1[S+]([O-])C(F)(F)F (stereo not shown) [fipronil]	group c), representing mainly the GABA-gated chloride channel antagonists	
Cc1c(C(=O)c2cnn(C)c2O)ccc(S(C)(=O)=O)c1C1=NOCC1 [topramezone, Topramezone]		assigned spectral changes induced by the carotenoid synthesis inhibitor topramezone to those of picolinafen
CN(C)C(=O)Nc1ccc(Cl)c(Cl)c1 [diuron]		clear separation of spectral changes by the carotenoid synthesis inhibitors to those induced by compounds with different mode of action
COc1nc(C)nc(NC(=O)NS(=O)(=O)c2ccccc2Cl)n1 [chlorsulfuron]		clear separation of spectral changes by the carotenoid synthesis inhibitors to those induced by compounds with different mode of action
CC1(C)C(C=C(Cl)Cl)C1C(=O)OC(C#N)c1cccc(Oc2ccccc2)c1 (stereo not shown) [cypermethrin]	group b), including most of the sodium channel modulators	
CC1(C)[C@H](C(=O)O[C@H](C#N)c2cccc(Oc3ccccc3)c2)[C@@H]1C=C(Br)Br [deltamethrin]	group b), including most of the sodium channel modulators	
C/C(=N\C#N)N(C)Cc1ccc(Cl)nc1 [acetamiprid]	group a), comprising the compounds acting on the nicotinic acetylcholine receptor	
CN1COCN(Cc2cnc(Cl)s2)/C1=N\[N+](=O)[O-] [thiamethoxam]	group a), comprising the compounds acting on the nicotinic acetylcholine receptor	
CC1(C)C(C=C(Cl)Cl)C1C(=O)OCc1cccc(Oc2ccccc2)c1 (stereo not shown) [permethrin]	group b), including most of the sodium channel modulators	
Cc1c(COC(=O)[C@@H]2[C@H](/C=C(\Cl)C(F)(F)F)C2(C)C)cccc1-c1ccccc1 (racemic) [bifenthrin]	group b), including most of the sodium channel modulators	
O=[N+]([O-])NC1=NCCN1Cc1ccc(Cl)nc1 [imidacloprid]	group a), comprising the compounds acting on the nicotinic acetylcholine receptor	
O=C(Nc1ccc(F)cc1)c1cccc(Oc2cccc(C(F)(F)F)c2)n1 [picolinafen]		assigned spectral changes induced by the carotenoid synthesis inhibitor topramezone to those of picolinafen
